Laboratory results taken from patent US20230407364A1 (GUANGDONG MEDICAL UNIVERSITY, published 2023).

Target: T1, human IL-18 (human, UniProt Q14116 37-193)
T1 construct: also called Interleukin-18
T1 sequence (looked up): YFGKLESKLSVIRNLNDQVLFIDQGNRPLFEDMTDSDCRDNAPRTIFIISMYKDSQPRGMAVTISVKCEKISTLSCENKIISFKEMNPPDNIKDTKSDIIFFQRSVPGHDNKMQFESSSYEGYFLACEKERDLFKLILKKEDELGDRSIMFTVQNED
Experiment: stated with the KG-1a cell IFN-γ neutralisation assay; no direct binding assay
Protocol: 12. In Vitro Activity Detection of Target Protein [0103] 1) Recovery of KG-1a cells is as follows. 8 mL of Dulbecco's modified eagle medium (DMEM) is added to a 10 mL centrifuge tube; the frozen KG-1a cells are taken and melted in a 37° C. water bath; and the melted KG-1a cells are immediately added to the prepared centrifuge tube and centrifuged at 1500 rpm for 5 minutes. The supernatant is sucked out and discarded, the precipitate is re-suspended with 1 mL of complete culture medium and added to a petri dish containing 6 mL of culture medium, shaken gently, and cultured in a 5% CO 2 incubator at 37° C. [0104] 2) The KG-1a cells are taken for observation under a microscope, and once the cells are in good growth status, the KG-1a cells are spread into a 96-well plate. [0105] 3) Plating: cells are collected into a sterile centrifuge tube by using a pipette and centrifuged at 1000 rpm for 5 minutes; the supernatant is discarded, resuspended and mixed with 1 mL of complete culture medium, 1 μL mixture is taken and diluted with complete culture medium 10 times, and the cells are counted under a microscope; 100 μL KG-1a cells per well (3×10⁵ cell/mL). [0106] […]

B1: recombinant interleukin-18 binding protein IL-18BP-Fc (human IL-18BP isoform a, (G4S)3 linker, human IgG-Fc) (Fc fusion)
chain: TPVSQTTTAATASVRSTKDPCPSQPPVFPAAKQCPALEVTWPEVEVPLNGTLSLSCVACSRFPNFSILYWLGNGSFIEHLPGRLWEGSTSRERGSTGTQLCKALVLEQLTPALHSTNFSCVLVDPEQVVQRHVVLAQLWAGLRATLPPTQEALPSSHSSPQQQGGGGGSGGGGSGGGGS[human IgG1 Fc not listed]
notes: also called recombinant IL-18BP; recombinant protein IL-18BP-Fc
binding result: binds
